Source: the antibiotic and cytotoxicity screens of Wong et al. (2023)
Some of the results follow.

Test system: S. aureus RN4220
Test: growth inhibition call (relative growth <= 0.2)
Settings: 50 µM

Growth inhibition call, inactive:
C[C@@H]1CN([C@@H](C)CO)C(=O)Cc2cc(NS(C)(=O)=O)ccc2O[C@H]1CN(C)S(=O)(=O)c1ccc(Cl)cc1
Cc1ccc(S(=O)(=O)Nc2ccc3c(c2)C(=O)N([C@@H](C)CO)C[C@H](C)[C@@H](CN(C)C(=O)Nc2ccc(C(F)(F)F)cc2)OCCCC[C@H](C)O3)cc1
COc1ccc(S(=O)(=O)Nc2ccc3c(c2)CC(=O)N([C@@H](C)CO)C[C@@H](C)[C@H](CN(C)S(=O)(=O)c2ccc(C)cc2)O3)cc1
CC(C)NC(=O)N1Cc2cc(C(=O)NC3CCCCC3)nc(-c3cccc(-c4cccnc4)c3)c2[C@H]1CCO
C[C@@H]1CN([C@H](C)CO)C(=O)Cc2cc(NC(=O)Cn3cnnn3)ccc2O[C@@H]1CN(C)S(C)(=O)=O
C[C@H](CO)N1C[C@H](C)[C@@H](CN(C)Cc2ccc(Oc3ccccc3)cc2)Oc2ccc(NS(=O)(=O)c3ccc(F)cc3)cc2CC1=O
COc1ccc(S(=O)(=O)N2[C@@H]3CC[C@@H](C3)[C@H]2c2nc3cccc(OCc4ccccc4)c3[nH]2)cc1OC
C[C@@H]1CN([C@@H](C)CO)C(=O)c2cc(NC(=O)CCC(F)(F)F)ccc2O[C@@H](C)CCCCO[C@@H]1CN(C)Cc1ccc2c(c1)OCO2
C[C@H]1CN([C@@H](C)CO)C(=O)Cc2cc(NC(=O)Cn3cnnn3)ccc2O[C@H]1CN(C)S(=O)(=O)c1cccs1
Cc1nc(CSCc2ccc(Cl)cc2Cl)cs1
C[C@H](CO)N1C[C@H](C)[C@@H](CN(C)Cc2ccc(C(=O)Nc3ccccc3N)cc2)Oc2ccc(NS(=O)(=O)c3ccc(Cl)cc3)cc2CC1=O
C[C@@H]1CN([C@H](C)CO)C(=O)c2cc(NS(=O)(=O)c3ccc(F)cc3)ccc2O[C@H]1CN(C)CC1CC1
COc1ccc(S(=O)(=O)Nc2ccc3c(c2)C(=O)N([C@@H](C)CO)C[C@@H](C)[C@@H](CN(C)CC2CC2)O3)cc1
C[C@H](CO)N1C[C@H](C)[C@H](CN(C)C(=O)Nc2cccc3ccccc23)Oc2ccc(NC(=O)Cn3cnnn3)cc2CC1=O
C[C@@H]1CCCCO[C@@H](CN(C)C(=O)Nc2ccc(C(F)(F)F)cc2)[C@@H](C)CN([C@H](C)CO)C(=O)c2cc(NS(=O)(=O)c3ccc(F)cc3)ccc2O1
C[C@@H]1CCCCO[C@H](CN(C)C(=O)Nc2ccc(F)cc2)[C@@H](C)CN([C@@H](C)CO)C(=O)c2cc(NC(=O)CCCN(C)C)ccc2O1
COc1ccc(NC(=O)N(C)C[C@@H]2Oc3ccc(NC(=O)Nc4cccc5ccccc45)cc3CC(=O)N([C@H](C)CO)C[C@H]2C)cc1
COc1ccc(S(=O)(=O)N(C)C[C@@H]2Oc3c(NS(C)(=O)=O)cccc3C(=O)N([C@@H](C)CO)C[C@H]2C)cc1
C[C@@H]1CCCCO[C@H](CN(C)Cc2ccccc2)[C@H](C)CN([C@H](C)CO)C(=O)c2cc(NS(=O)(=O)c3ccccc3)ccc2O1
CCCN(C)C[C@@H]1Oc2cc(C#Cc3ccc(OC)cc3)ccc2S(=O)(=O)N([C@H](C)CO)C[C@@H]1C
C[C@H](CO)N1C[C@H](C)[C@H](CN(C)S(C)(=O)=O)Oc2c(NS(=O)(=O)c3cn(C)cn3)cccc2C1=O
Cc1nnc(NCc2ccccc2)n(N)c1=O
C[C@H]1CN([C@@H](C)CO)C(=O)c2cccc(NS(=O)(=O)c3ccccc3)c2O[C@@H]1CN(C)Cc1ccc(Oc2ccccc2)cc1
Cc1ccc(S(=O)(=O)Nc2cccc3c2O[C@@H](CN(C)S(=O)(=O)c2ccc(F)cc2)[C@H](C)CN([C@@H](C)CO)C3=O)cc1
CC(C)NC(=O)N(C)C[C@@H]1Oc2ccc(NC(=O)Nc3ccc4c(c3)OCO4)cc2C(=O)N([C@@H](C)CO)C[C@H]1C
C[C@H](CO)N1C[C@H](C)[C@H](CN(C)S(=O)(=O)c2ccc(Cl)cc2)OCc2cnnn2CCCC1=O
C[C@@H]1CN([C@H](C)CO)C(=O)CCCn2cc(nn2)CO[C@@H]1CN(C)Cc1cccc2c1OCCCO2
C[C@@H]1CCCCO[C@H](CN(C)S(=O)(=O)c2cn(C)cn2)[C@@H](C)CN([C@H](C)CO)C(=O)c2cc(NS(=O)(=O)c3cccs3)ccc2O1
C[C@@H]1CN([C@@H](C)CO)C(=O)c2cc(NC(=O)Nc3cccc4ccccc34)ccc2O[C@@H]1CN(C)C(=O)Nc1cccc2ccccc12
COc1ccc(NC(=O)Nc2ccc3c(c2)C(=O)N([C@H](C)CO)C[C@@H](C)[C@H](CN(C)Cc2ccncc2)OCCCC[C@@H](C)O3)cc1
